Source: PubChem BioAssay AID1645887 (National Center for Advancing Translational Sciences (NCATS), 2021)
Values joined by “and” are separate entries in the source; they are usually repeats but may differ in a detail not shown here. Identical values can stand only once. Hit rate of the full screen: of about 16,000 compounds, about 40 (0.2%) were called active. Inconclusive results (about 1%) are left out. The call rests on the fitted dose curve; in most records, active means well fitted activation curve with a large enough effect; inconclusive means small, poorly fitted or top-dose-only effect, or another doubt; inactive means no such curve, though single readings can be large or run the other way. This is one part of the list. Positions of bridges follow the written chain, without caps; N, C: chain ends. Non-standard residues stand in square brackets, D forms with d. Residues, ends and D or L forms follow the SMILES beside them. Orn = NCCC[C@H](N)C(=O)O; Mpa = O=C(O)CCS

target: Rap guanine nucleotide exchange factor 4 (Homo sapiens) (UniProt Q8WZA2); assay: Validation qHTS for agonist of cAMP-regulated guanine nucleotide exchange factor 4 (EPAC2); settings: EPAC2 Rap1B BODIPY-GDP exchange, fluorescence; activation: hits give high values;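 further: exchange makes BODIPY-GDP fluorescence drop when released from Rap1B; series mostly up to about 150 µM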
Sequence of UniProt Q8WZA2 (Q8WZA2 whole entry, looked up): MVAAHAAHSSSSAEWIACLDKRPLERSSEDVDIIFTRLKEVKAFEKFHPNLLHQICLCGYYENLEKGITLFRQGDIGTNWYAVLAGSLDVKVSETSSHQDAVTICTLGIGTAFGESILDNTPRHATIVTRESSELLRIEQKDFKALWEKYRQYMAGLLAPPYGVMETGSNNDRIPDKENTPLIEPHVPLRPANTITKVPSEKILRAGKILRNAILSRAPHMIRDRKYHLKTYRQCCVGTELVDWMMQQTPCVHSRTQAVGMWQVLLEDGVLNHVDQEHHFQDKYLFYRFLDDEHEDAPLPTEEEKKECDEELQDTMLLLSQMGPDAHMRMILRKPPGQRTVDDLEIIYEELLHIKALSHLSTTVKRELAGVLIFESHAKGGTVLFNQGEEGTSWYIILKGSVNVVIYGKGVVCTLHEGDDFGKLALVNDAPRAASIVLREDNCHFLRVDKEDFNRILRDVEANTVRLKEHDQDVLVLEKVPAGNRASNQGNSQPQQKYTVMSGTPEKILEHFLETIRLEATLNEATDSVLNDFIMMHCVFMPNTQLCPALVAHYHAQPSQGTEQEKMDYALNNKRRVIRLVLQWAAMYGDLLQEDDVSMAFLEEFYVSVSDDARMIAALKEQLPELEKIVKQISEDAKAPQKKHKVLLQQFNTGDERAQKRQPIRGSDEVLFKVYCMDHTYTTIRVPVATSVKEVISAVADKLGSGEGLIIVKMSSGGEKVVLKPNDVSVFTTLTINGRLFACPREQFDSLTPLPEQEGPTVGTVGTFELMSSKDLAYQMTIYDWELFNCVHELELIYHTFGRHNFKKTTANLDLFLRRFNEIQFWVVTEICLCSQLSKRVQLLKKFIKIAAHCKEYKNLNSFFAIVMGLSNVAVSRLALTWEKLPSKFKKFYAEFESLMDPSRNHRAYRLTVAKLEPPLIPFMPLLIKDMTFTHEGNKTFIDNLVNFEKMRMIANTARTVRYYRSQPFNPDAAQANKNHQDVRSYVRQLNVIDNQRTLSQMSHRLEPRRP
Procedure, shortened: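 Signal normalized against 6.5 mM cAMP as agonist control. Mix of EPAC2 (100 nM), RAP1B-BODIPY-GDP (250 nM) and GDP (50 uM) was read kinetically at 480/540 nm, every 5 min over 30 min, after 5 min room-temperature incubation with compound.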
On the % scale 0 is the no-effect control and ±100 the full control effect.

activation, inactive:
Nc1ccc(S(=O)(=O)Nc2ccccn2)cc1 -27.8% and 4.77%
Cc1c(CCO)sc[n+]1CC(=O)c1ccc(F)cc1 -31.3%
O=C(CCN1CCC(c2ccccc2)C1)c1ccc2c(c1)OCCO2 (stereo unspecified) -6.1%
O=Cc1ccc(O)cc1 -12.5%
N[C@@H](Cc1ccc(O)c(I)c1)C(=O)O -21%
OC[C@H]1O[C@H](n2cnc3c(NC4CCCC4)nc(Cl)nc32)[C@@H](O)[C@@H]1O -18.1%
Cc1cnc(C)c(-c2ccc(F)c3c2OC(CNC(=O)/C=C/c2cccs2)C3)n1 (stereo unspecified) -22.8%
CCNc1ncc2nc(-c3ccccc3)c(=O)n(C[C@H]3CCCO3)c2n1 -15%
Cc1cc(Nc2ccccc2C(=O)O)ccc1Cl -22.6%
Cc1c(C(=O)NCC(C)(C)CN(C)C)cnn1-c1nccc(-c2ccccc2F)n1 -18.3%
O=c1[nH]c(=O)c2ccccc2o1 -15.5%
O=S1(=O)c2cccc3cccc(c23)N1CCCN1CCN(c2ccc(F)cc2)CC1 -22.2%
COc1cccc(CN2CCC3(CCC(CNC(=O)c4ccccc4)O3)CC2)c1 (stereo unspecified) -6.35%
Nc1ncnc2c1ncn2C1CCCO1 (stereo unspecified) -0.22% and -42.9%
O=C1CC[C@H](O)CCN1[C@H](CSc1ccccc1)Cc1ccccc1 -32.1%
COCC1CCCN(Cc2ccc3c(c2)CN(C(=O)c2cn4ccc(C)cc4n2)CCO3)C1 (stereo unspecified) -7.53%
Cc1noc(C)c1CC(=O)N1CCOc2c(cc(-c3nc4ccccc4s3)cc2OC2CCOC2)C1 (stereo unspecified) 1.46%
Cc1cc(O)c2ccccc2c1O 10.5%
O=c1ccc2ccccc2o1 3.12% and -15.7%
COc1cccc(Cn2c(=O)c(-c3cccs3)nc3cnc(OC)nc32)c1 -7.01%
CC1(C)C=Cc2cc3ccc(=O)oc3cc2O1 -10.1%
NCCOB(c1ccccc1)c1ccccc1 -12.2% and -19.7% and -21.3%
CCOc1ccc(C[C@H]2NC(=O)CCSSC[C@@H](C(=O)N3CCC[C@H]3C(=O)N[C@@H](CCCN)C(=O)NCC(N)=O)NC(=O)[C@H](CC(N)=O)NC(=O)[C@H]([C@@H](C)O)NC(=O)[C@H]([C@@H](C)CC)NC2=O)cc1 ([Mpa][dY](Et)ITNCP[Orn]G-NH2; disulfide 1-6) 0.339%
H-EQKQLQ-OH 1.76%
Cc1noc(C)c1-c1nccc(N(C)C)n1 -13.8%
COc1ccc(-c2coc3ccc(OC4OC(COC(C)=O)C(OC(C)=O)C(OC(C)=O)C4OC(C)=O)c(OC(C)=O)c3c2=O)cc1 (stereo unspecified) -17.1%
COc1cc(-c2ccc(-[n+]3nc(-c4ccccc4)nn3-c3ccc([N+](=O)[O-])cc3)c(OC)c2)ccc1-[n+]1nc(-c2ccccc2)nn1-c1ccc([N+](=O)[O-])cc1 -6.4%
COc1cc(N)c(Cl)cc1C(=O)N[C@H]1CCN(CCCOc2ccc(F)cc2)C[C@@H]1OC -25.9%
CCOC(=O)c1c(C)cc(O)cc1O -9.12%
CN(C)CCCN1c2ccccc2Sc2ccc(Cl)cc21 4.79% and -8.89% and 2.9%
CCCC1(C)C(C#N)(C#N)C1(C#N)C#N -2.01%
O=C(c1ccco1)N1CCC2(CC1)CN(C(c1ccccc1)c1ccccc1)C2 -1.08%
CCCCCCCCCCCCCCCCOC[C@H](COP(=O)([O-])OCC[N+](C)(C)C)OC(=O)NC -4.58%
O=C(NCCc1nnc2n1CCN(Cc1ccc(F)cc1)CC2)c1ccc(F)cc1 -19%
COc1ccccc1N1CCN(CCCCN2C(=O)CCC2=O)CC1 -12% and 6.17%
C[N+]1(CC(=O)c2ccc(F)cc2)CCc2ccccc2C1 (stereo unspecified) -10.1%
CC(=O)N1CCC[C@H]1C(=O)NCC1Cc2cc(F)cc(-c3ccc(F)c(C)c3)c2O1 (stereo partly specified) -18.9%
CCCCOc1cc(CC2CNC(=O)N2)ccc1OC (stereo unspecified) -13.5% and -4.21% and -11.5%
Cc1cccc(CNc2ccnc(-c3ccccc3CN(C)C)n2)c1 -13.9%
CC(=O)OC1C[C@]2(C)C(C(C)=O)CCC2C2CCC3=CC(=O)CC[C@@]3(C)C12 (stereo partly specified) -12.4%
O=C1NC(=O)/C(=C/c2ccc3c(c2)OC(F)(F)O3)S1 -11.6%
COc1cc(-c2noc(C)c2C#Cc2ccsc2)cc(OC)c1OC -10.2%
CN(C)c1ncc2ncc(=O)n(Cc3cccs3)c2n1 -8.5%
N[C@@H](CCS(=O)O)C(=O)O -8.06% and 4.82%
O=c1[nH]cnc2c1ncn2[C@@H]1O[C@H](CO)[C@@H](O)[C@H]1O -17.8%
CC(C)NC(=O)N1CC[C@@]2(CCCN(S(=O)(=O)c3ccccc3)C2)C1 -5.62%
COc1cc2c(cc1O)CCN[C@]21CS[C@@H]2c3c(OC(C)=O)c(C)c4c(c3[C@H](COC1=O)N1[C@@H]2[C@H]2c3c(cc(C)c(OC)c3O)C[C@@H]([C@@H]1O)N2C)OCO4 -34.6% and -15%
COc1ccc(Oc2ncc3nc(-c4ccccc4)c(=O)n(C[C@H]4CCCO4)c3n2)cc1 1.71%
C[C@@H]1CN(Cc2ccc3c(c2)CN(Cc2cccn2-c2ccc(Cl)cn2)CCO3)C[C@H](C)O1 -13.3%
COC(=O)c1sccc1S(=O)(=O)N1CCC(n2c(CC3CCCC3)nc3cccnc32)CC1 -8.2%
Nc1nc(Nc2ccccc2)nc2c1ncn2[C@@H]1O[C@@H](CO)[C@H](O)[C@H]1O -31.9%
